# Laboratory results reported in PMC4336329 (PLoS ONE, 2015).
# Screen size: about 310,000 compounds; about 2,200 (0.71%) showed an effect of 50% or more. Effects have a minus sign here. The list shows a part of the results.
# Target: human ether-à-go-go-related gene (hERG) potassium channel (human, UniProt Q12809)
# Assay: primary screen, population patch clamp on CHO cells stably expressing hERG
# Chain of human ether-à-go-go-related gene (hERG) potassium channel (Q12809 whole entry, looked up): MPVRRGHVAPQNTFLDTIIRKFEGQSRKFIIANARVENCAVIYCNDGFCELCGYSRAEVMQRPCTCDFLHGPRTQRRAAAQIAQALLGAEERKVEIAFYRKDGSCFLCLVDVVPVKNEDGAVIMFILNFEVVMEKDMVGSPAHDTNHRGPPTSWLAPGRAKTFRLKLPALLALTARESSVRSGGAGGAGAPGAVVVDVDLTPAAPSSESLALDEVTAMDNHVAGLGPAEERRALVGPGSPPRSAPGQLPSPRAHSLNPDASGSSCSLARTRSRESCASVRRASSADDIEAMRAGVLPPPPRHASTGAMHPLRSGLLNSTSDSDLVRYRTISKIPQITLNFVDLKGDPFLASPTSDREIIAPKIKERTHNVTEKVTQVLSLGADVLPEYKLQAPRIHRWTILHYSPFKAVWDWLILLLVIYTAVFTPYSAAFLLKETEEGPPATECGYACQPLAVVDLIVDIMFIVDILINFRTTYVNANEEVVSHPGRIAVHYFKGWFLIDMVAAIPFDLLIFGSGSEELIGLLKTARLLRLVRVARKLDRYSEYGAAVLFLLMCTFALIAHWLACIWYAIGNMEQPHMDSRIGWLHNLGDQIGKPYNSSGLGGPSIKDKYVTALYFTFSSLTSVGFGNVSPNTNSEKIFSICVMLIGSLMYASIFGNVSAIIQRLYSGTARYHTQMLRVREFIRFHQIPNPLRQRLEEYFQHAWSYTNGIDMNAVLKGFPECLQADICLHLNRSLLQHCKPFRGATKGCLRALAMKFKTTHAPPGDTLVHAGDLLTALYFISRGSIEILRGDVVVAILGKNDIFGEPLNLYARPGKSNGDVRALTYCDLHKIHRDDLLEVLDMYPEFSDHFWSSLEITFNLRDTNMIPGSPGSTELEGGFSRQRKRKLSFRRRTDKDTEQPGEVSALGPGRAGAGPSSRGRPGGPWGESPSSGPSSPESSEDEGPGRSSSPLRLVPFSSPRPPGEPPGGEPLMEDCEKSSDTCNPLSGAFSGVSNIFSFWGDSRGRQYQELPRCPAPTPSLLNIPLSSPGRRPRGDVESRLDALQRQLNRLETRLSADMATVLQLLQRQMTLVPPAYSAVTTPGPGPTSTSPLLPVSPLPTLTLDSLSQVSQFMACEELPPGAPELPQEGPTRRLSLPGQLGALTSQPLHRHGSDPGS
row,SMILES,"hERG current change (%, negative = inhibition) at 1uM"
1,Cc1ccc(C)c(CSc2nnc(-c3cccnc3)o2)c1,2.8%
2,O=C1c2ccccc2C(=O)N1CCOc1ccccc1Br,15.1%
3,COc1cc(C2NC(=O)NC(C)=C2C(=O)OCc2ccc(C)cc2)cc(OC)c1OC (stereo not shown),8.86%
4,Cc1cccc(C(=O)N(Cc2nc3ccccc3c(=O)[nH]2)C2CCCC2)c1,7.7%
5,Cc1ccc(NC(=S)N2CCN(c3ccccn3)CC2)c(C)c1,12.7%
6,CCOc1cccc(C(=O)Nc2ccc3[nH]ncc3c2)c1,21.7%
7,CCc1c(C)nc(N2CCOCC2)[nH]c1=O,-9.74%
8,Cc1ccc(OCCn2c(CCCO)nc3ccccc32)cc1,4.73%
9,CC(=O)Nc1ccc(C(=S)NCc2ccco2)cc1,6.64%
10,COC(=O)[C@@]12CCCN1[C@H](c1ccc(-c3ccc4c(c3)OCO4)c(OC)c1)[C@H]1C(=O)N(C)C(=O)[C@H]12.O=C(O)C(F)(F)F,9.32%
11,Cc1nc(C)c(-c2csc(Nc3ccccn3)n2)s1,13.8%
12,COc1ccc(-c2nc(CS(=O)CC(=O)N3CCOCC3)c(C)o2)cc1OC (stereo not shown),14.7%
13,Cc1ccccc1NC(=O)NCc1ccccn1,12.2%
14,CCCCOc1ccc(CC2CCC(=O)NC2=O)cc1 (stereo not shown),2.91%
15,Cc1cc(C)n(-c2ccc(C(=O)Nc3cccc(S(=O)(=O)N(C)C)c3)cc2)n1,16.5%
16,CCSc1nc(N)c(C#N)c(-c2ccccc2Cl)c1C#N,4.08%
17,CC[C@H]1CC2CN3CCc4c([nH]c5cc(OC)ccc45)[C@](C(=O)OC)(C2)[C@H]13,12.9%
18,O=C(CN1C(=O)C2(OCCO2)c2cc(Br)ccc21)NO,22.8%
19,O=C(COC(=O)CNS(=O)(=O)c1ccc(F)c(F)c1F)Nc1ccc(OC(F)F)cc1,-10.3%
20,COc1ccc(/C=N/N2C(=O)CSC2=S)cc1Br,6.81%
21,COc1ccc(S(=O)(=O)N(CCC#N)Cc2ccco2)cc1OC,16.9%
22,Cc1cccc([C@@H]2[C@@H]3C(=O)N(Cc4ccccc4)C(=O)[C@@H]3[C@]3(Cc4ccc(Cl)cc4)C(=O)N(c4ccc(Br)cc4)C(=O)N23)c1,20.4%

row,SMILES,"hERG current change (%, negative = inhibition) at 1uM"
1,O=C1CCC(C(=O)N2CCCC(C(=O)c3ccc4c5c(cccc35)CC4)C2)=NN1 (stereo not shown),-10.1%
2,O=C1COc2ccc(C(=O)COC(=O)CCSc3ccccc3)cc2N1,5.32%
3,COc1ccc(C)cc1NC(=O)C(OC(=O)C1CC1)c1ccccc1 (stereo not shown),-0.0939%
4,O=C(NC1(C(F)(F)F)N=C2SCCN2C1=O)c1ccccc1F (stereo not shown),10.9%
5,CCn1c(C)nc2cc(C(=O)OC(C(F)(F)C(F)F)C(F)(F)C(F)F)ccc21,1.32%
6,COc1ccc(/C=C/C(=O)c2ccccc2)cc1COc1ccc(F)cc1,0.167%
7,CCOC(=O)CCn1nc(-c2ccc(Cl)cc2)cc1N,12.9%
8,COc1ccc(NS(=O)(=O)c2ccc(NC(=S)NC(=O)/C=C/c3ccccc3)cc2)nn1,6.19%
9,CCOC(=O)c1[nH]c2cc(OC)c(OC)cc2c1NC(=O)c1nonc1C,6.18%
10,COc1ccc(CN(C(C)=O)c2cccc(C)c2C)cc1,0.308%
11,Cc1cc(C)c(C(=O)CC(=O)c2ccccc2Cl)c(O)c1,14.4%
12,O=[N+]([O-])c1cccnc1NCc1cccs1,11.9%
13,CCN1CCN(Cc2c(O)ccc3c(=O)c(-c4ccc(OC)c(OC)c4)c(C)oc23)CC1,5.51%
14,O=C(c1cccc(C(F)(F)F)c1)N1CCCCCC1,-3.6%
15,COc1cccc(CNC(=O)CCC(=O)N2CCOCC2)c1,19.1%
16,CCCCN(C(=O)Cn1nnc2ccccc21)C(C(=O)NCCOC)c1ccc(OC)cc1OC (stereo not shown),11.2%
17,Cc1cccc(CC2S/C(=N/N=C/c3ccco3)NC2=O)c1 (stereo not shown),10.4%
18,O=C(CS(=O)(=O)Cc1ccccc1)N1CCN(Cc2ccc3c(c2)OCO3)CC1,-2.9%
19,CC1CC(C)CN(C(=O)c2ccc(NS(=O)(=O)c3ccc4[nH]c(=O)[nH]c4c3)cc2)C1 (stereo not shown),-4.06%
20,O=C(COC(=O)CCc1ccc(S(=O)(=O)N2CCOCC2)cc1)NCc1ccc(Cl)cc1,5.61%
21,Cc1c(Br)c([N+](=O)[O-])nn1CC(=O)N(C)Cc1ccccc1,-3.11%
22,COc1ccc(-c2cc(C(=O)N3CCOCC3)c3cc(C)ccc3n2)cc1,8.75%

row,SMILES,"hERG current change (%, negative = inhibition) at 1uM"
1,CCOP(=O)(OCC)C(NC(=O)c1cccc(C)c1)C(Cl)(Cl)Cl (stereo not shown),13.2%
2,COCc1[nH]nc2c1C(c1ccc(F)cc1F)C(C#N)=C(N)O2 (stereo not shown),11.1%
3,Cc1ccc(-c2c3c(=O)n(C)c(=O)n(C)c3cn2-n2cnnc2)cc1,-2.01%
4,CCOC(=O)NC(Nc1ccc(S(N)(=O)=O)cc1)(C(=O)OCC)C(F)(F)F (stereo not shown),7.75%
5,Cc1cccc(COc2ccccc2/C=N/Nc2ccc([N+](=O)[O-])cc2)c1,-2.86%
6,CCCCOCCCn1c(-c2ccco2)nc2nc3ccccc3nc21,-17%
7,c1ccc2c(-c3nn4nnnc4c4ccccc34)cccc2c1,1.04%
8,COc1ccc(CN2CCN(C(=O)c3ccco3)CC2)cc1OCc1ccccc1,-20.4%
9,CC(C)n1c(/C=C/[C@H](O)C[C@H](O)CC(=O)[O-])c(-c2ccc(F)cc2)c2ccccc21.[Na+],11.8%
10,Cc1ccc(N(C)C(=O)C2CCCN2S(=O)(=O)c2cccc3nsnc23)cc1 (stereo not shown),11.4%
11,COc1cccc(C(=O)Nc2nnc(Cc3ccc(OC)c(OC)c3)s2)c1,16.2%
12,COc1cc(C2Nc3ccc4ncccc4c3C3=C2C(=O)CC(C)(C)C3)cc(OC)c1O (stereo not shown),3.56%
13,O=C(NNC(=O)c1cc2cc(OC(F)(F)F)ccc2[nH]1)c1cccc(C(F)(F)F)c1,8.98%
14,CN(Cc1ccc(F)cc1)C(=O)COc1ccccc1-c1ccccc1,7.54%
15,O=C(Nc1cccc(C(F)(F)F)c1)c1cc(-c2ccc(F)cc2)on1,5.78%
16,Cc1ccc2c(c1)NC(=O)C(CC(=O)NCCCN1CCN(c3cc(C)ccc3C)CC1)O2 (stereo not shown),-29.6%
17,C/C(N)=C(/C#N)C(=O)CSc1nnnn1-c1ccc(C)cc1C,1.94%
18,COc1cccc(NC(=O)NCCc2ccc(Cl)cc2)c1,5.86%
19,Cc1ccnc(NC(=O)CCCc2ccccc2)c1,15.4%
20,COc1ccc2c(c1OC)C(=O)OC2C1c2c(cc3c(c2OC)OCO3)CCN1C (stereo not shown),7.08%
21,CC1(C)CC(=O)C2=C(C1)OC(N)=C(C#N)C2c1cccc(OC(=O)c2ccco2)c1 (stereo not shown),6%
22,O=c1[nH]c(CSc2ncccn2)nc2c1cnn2-c1ccccc1,12.2%

row,SMILES,"hERG current change (%, negative = inhibition) at 1uM"
1,Cc1cc(N2CCN(c3ccccc3)CC2)nc2ccccc12,10.1%
2,Cc1sc2ncnc(NCc3cccnc3)c2c1C,-22.1%
3,CCOC(=O)c1c(N)sc2c1CCSC2,10.6%
4,COc1cc(-c2nnc(-c3ccc(N4CCOCC4)cc3)o2)cc(OC)c1OC,-18.3%
5,COc1cc(NC(=O)CSc2nc(C)cc(C)n2)cc(OC)c1OC,6.44%
6,O=C(NS(=O)(=O)Nc1ccccn1)c1c[nH]c2ccccc12,14.2%
7,CCC(=O)N(Cc1cc2cc(OC)ccc2[nH]c1=O)c1ccc(C)cc1,11.5%
8,CN(C)c1ccc(CNCCC2(O)CCOC(C)(C)C2)cc1 (stereo not shown),0.472%
9,CCCn1nc(Oc2nc(NCC)nc(NC(C)C)n2)ccc1=O,7.71%
10,Cc1ccc(CNC(=O)Cn2nnc(C(=O)Nc3ccc(Br)cc3)c2N)cc1,11%
11,CCOC(=O)c1nc(N)c(=O)n(-c2ccccc2)n1,4.58%
12,O=C(O)C1C2C=CC(C2)C1C(=O)NCc1ccccc1F (stereo not shown),14.1%
13,COc1ccc(CC(=O)NNC(=O)c2ccc(SCc3cc(F)ccc3F)c([N+](=O)[O-])c2)cc1,-12.9%
14,Cc1cc(NC(=O)C(C)Sc2nnc(NCc3ccco3)s2)no1 (stereo not shown),6.85%
15,COc1ccc(C(=O)CNc2ccccc2Br)cc1,14.4%
16,O=C(CN1CCCCC1)Nc1ccccc1,9.84%
17,Cc1cc(NC(=O)CN2C(=O)NC(CCc3ccccc3)C2=O)no1 (stereo not shown),8.63%
18,CN(C)c1ccc(C(CNC(=O)c2cccs2)N(C)C)cc1 (stereo not shown),11.9%
19,C=CCNC(=S)NCc1ccc(CNC(=S)NCC=C)cc1,12.1%
20,CCN1CCN(C(=O)C(=O)c2c(C)[nH]c3ccccc23)CC1,3.16%
21,Cc1nn(-c2ccccc2)c(Cl)c1C(=O)NCC1CCCO1 (stereo not shown),13.4%
22,C/C(=N/NC(=O)c1nnn(-c2nonc2N)c1COc1ccccc1)c1ccc(O)cc1,16.1%
